# In the supplement of paper PMC8728848:
# The list shows a part of the results.
# B1: CBM40 CPF071 (Clostridium perfringens) (protein)
# chain: MAHHHHHHVGTGSNDDDDKSPDPMLSSLGEYKDINLESSNASNITYDLEKYKNLDEGTIVVRFNSKDSKIQSLLGISNSKTKNGYFNFYVTNSRVGFELRNQKNEGNTQNGTENLVHMYKDVALNDGDNTVALKIEKNKGYKLFLNGKMIKEVKDTNTKFLNNIENLDSAFIGKTNRYGQSNEYNFKGNIGFMNIYNEPLGDDYLLSKTGETK
# Legend:
# Experiment in all cases: glycan array binding signal (z-score within array); higher = stronger binding
# Details in all cases: glycan notation: IUPAC condensed, linker removed
# Fuc(a1-2)Gal = target: Fuc(a1-2)Gal
# Procedure, shortened: (§1)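 Arrays were curated from the Consortium for Functional Glycomics database, 3228 in total, and kept only where the protein sequence was available. Binding is expressed as a within-array Z-score. This score was averaged across arrays of the same protein sequence at different concentrations or buffers and across linkers, and negative values can be read as non-binding.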
# Fuc(a1-2)Gal(b1-3)GalNAc = target: Fuc(a1-2)Gal(b1-3)GalNAc
# Procedure, shortened: as §1
# [1] = target: Fuc(a1-2)Gal(b1-3)GalNAc(a1-3)[Fuc(a1-2)]Gal(b1-4)Glc
# Procedure, shortened: as §1
# [2] = target: Fuc(a1-2)Gal(b1-3)GalNAc(a1-3)[Fuc(a1-2)]Gal(b1-4)GlcNAc
# Procedure, shortened: as §1
# [3] = target: Fuc(a1-2)Gal(b1-3)GalNAc(b1-3)Gal
# Procedure, shortened: as §1
# [4] = target: Fuc(a1-2)Gal(b1-3)GalNAc(b1-3)Gal(a1-4)Gal(b1-4)Glc
# Procedure, shortened: as §1
# [5] = target: Fuc(a1-2)Gal(b1-3)GalNAc(b1-4)[Neu5Ac(a2-3)]Gal(b1-4)Glc
# Procedure, shortened: as §1
# Fuc(a1-2)Gal(b1-3)GlcNAc = target: Fuc(a1-2)Gal(b1-3)GlcNAc
# Procedure, shortened: as §1
# [6] = target: Fuc(a1-2)Gal(b1-3)GlcNAc(b1-2)Man(a1-3)[Fuc(a1-2)Gal(b1-3)GlcNAc(b1-2)Man(a1-6)]Man(b1-4)GlcNAc(b1-4)GlcNAc
# Procedure, shortened: as §1
# [7] = target: Fuc(a1-2)Gal(b1-3)GlcNAc(b1-2)Man(a1-3)[Fuc(a1-2)Gal(b1-3)GlcNAc(b1-2)Man(a1-6)]Man(b1-4)GlcNAc(b1-4)[Fuc(a1-6)]GlcNAc
# Procedure, shortened: as §1
# [8] = target: Fuc(a1-2)Gal(b1-3)GlcNAc(b1-3)Gal(b1-4)Glc
# Procedure, shortened: as §1
# [9] = target: Fuc(a1-2)Gal(b1-3)GlcNAc(b1-3)GalNAc
# Procedure, shortened: as §1
# [10] = target: Fuc(a1-2)Gal(b1-3)GlcNAc(b1-3)[Fuc(a1-2)Gal(b1-3)GlcNAc(b1-6)]GalNAc
# Procedure, shortened: as §1
# [11] = target: Fuc(a1-2)Gal(b1-3)GlcNAc(b1-3)[Gal(b1-4)GlcNAc(b1-6)]Gal(b1-4)Glc
# Procedure, shortened: as §1
# [12] = target: Fuc(a1-2)Gal(b1-3)GlcNAc(b1-3)[Neu5Ac(a2-6)Gal(b1-4)GlcNAc(b1-6)]Gal(b1-4)Glc
# Procedure, shortened: as §1
# [13] = target: Fuc(a1-2)Gal(b1-3)GlcNAc6S
# Procedure, shortened: as §1
# [14] = target: Fuc(a1-2)Gal(b1-3)[Fuc(a1-4)]GlcNAc
# Procedure, shortened: as §1
# [15] = target: Fuc(a1-2)Gal(b1-3)[Fuc(a1-4)]GlcNAc(b1-2)Man(a1-3)[Fuc(a1-2)Gal(b1-3)[Fuc(a1-4)]GlcNAc(b1-2)Man(a1-3)]Man(b1-4)GlcNAc(b1-4)GlcNAc
# Procedure, shortened: as §1
# [16] = target: Fuc(a1-2)Gal(b1-3)[Fuc(a1-4)]GlcNAc(b1-2)Man(a1-3)[Fuc(a1-2)Gal(b1-3)[Fuc(a1-4)]GlcNAc(b1-2)Man(a1-6)]Man(b1-4)GlcNAc(b1-4)[Fuc(a1-6)]GlcNAc(b1-4)[Fuc(a1-6)]GlcNAc
# Procedure, shortened: as §1
# [17] = target: Fuc(a1-2)Gal(b1-3)[Fuc(a1-4)]GlcNAc(b1-3)[Fuc(a1-3)[Gal(b1-4)]GlcNAc(b1-6)]Gal(b1-4)Glc
# Procedure, shortened: as §1
# [18] = target: Fuc(a1-2)Gal(b1-3)[Fuc(a1-4)]GlcNAc(b1-3)[Gal(b1-4)GlcNAc(b1-6)]Gal(b1-4)Glc
# Procedure, shortened: as §1
# Fuc(a1-2)Gal(b1-4)Glc = target: Fuc(a1-2)Gal(b1-4)Glc
# Procedure, shortened: as §1
# Fuc(a1-2)Gal(b1-4)Glc6S = target: Fuc(a1-2)Gal(b1-4)Glc6S
# Procedure, shortened: as §1
# Fuc(a1-2)Gal(b1-4)GlcNAc = target: Fuc(a1-2)Gal(b1-4)GlcNAc
# Procedure, shortened: as §1
# [19] = target: Fuc(a1-2)Gal(b1-4)GlcNAc(b1-2)Man
# Procedure, shortened: as §1
# [20] = target: Fuc(a1-2)Gal(b1-4)GlcNAc(b1-2)Man(a1-3)[Fuc(a1-2)Gal(b1-4)GlcNAc(b1-2)Man(a1-6)]Man(b1-4)GlcNAc(b1-4)GlcNAc
# Procedure, shortened: as §1
# [21] = target: Fuc(a1-2)Gal(b1-4)GlcNAc(b1-2)Man(a1-3)[Fuc(a1-2)Gal(b1-4)GlcNAc(b1-2)Man(a1-6)]Man(b1-4)GlcNAc(b1-4)[Fuc(a1-6)]GlcNAc
# Procedure, shortened: as §1
# [22] = target: Fuc(a1-2)Gal(b1-4)GlcNAc(b1-2)[Fuc(a1-2)Gal(b1-4)GlcNAc(b1-4)]Man(a1-3)[Fuc(a1-2)Gal(b1-4)GlcNAc(b1-2)Man(a1-6)]Man(b1-4)GlcNAc(b1-4)GlcNAc
# Procedure, shortened: as §1
# [23] = target: Fuc(a1-2)Gal(b1-4)GlcNAc(b1-3)Gal(b1-4)GlcNAc
# Procedure, shortened: as §1
# [24] = target: Fuc(a1-2)Gal(b1-4)GlcNAc(b1-3)Gal(b1-4)GlcNAc(b1-2)Man(a1-3)[Fuc(a1-2)Gal(b1-4)GlcNAc(b1-3)Gal(b1-4)GlcNAc(b1-2)Man(a1-6)]Man(b1-4)GlcNAc(b1-4)GlcNAc
# Procedure, shortened: as §1
binder,measurement,setting,value
B1,glycan array binding signal (z-score),Fuc(a1-2)Gal,-0.208
same,glycan array binding signal (z-score),Fuc(a1-2)Gal(b1-3)GalNAc,-0.372
same,glycan array binding signal (z-score),[1],-0.212
same,glycan array binding signal (z-score),[2],-0.352
same,glycan array binding signal (z-score),[3],-0.348
same,glycan array binding signal (z-score),[4],-0.319
same,glycan array binding signal (z-score),[5],-0.026
same,glycan array binding signal (z-score),Fuc(a1-2)Gal(b1-3)GlcNAc,-0.384
same,glycan array binding signal (z-score),[6],-0.284
same,glycan array binding signal (z-score),[7],-0.389
same,glycan array binding signal (z-score),[8],-0.449
same,glycan array binding signal (z-score),[9],0.574
same,glycan array binding signal (z-score),[10],0.049
same,glycan array binding signal (z-score),[11],-0.319
same,glycan array binding signal (z-score),[12],0.311
same,glycan array binding signal (z-score),[13],-0.366
same,glycan array binding signal (z-score),[14],-0.015
same,glycan array binding signal (z-score),[15],0.148
same,glycan array binding signal (z-score),[16],0.652
same,glycan array binding signal (z-score),[17],0.335
same,glycan array binding signal (z-score),[18],-0.403
same,glycan array binding signal (z-score),Fuc(a1-2)Gal(b1-4)Glc,-0.55
same,glycan array binding signal (z-score),Fuc(a1-2)Gal(b1-4)Glc6S,-0.132
same,glycan array binding signal (z-score),Fuc(a1-2)Gal(b1-4)GlcNAc,-0.027
same,glycan array binding signal (z-score),[19],-0.627
same,glycan array binding signal (z-score),[20],-0.22
same,glycan array binding signal (z-score),[21],-0.265
same,glycan array binding signal (z-score),[22],-0.284
same,glycan array binding signal (z-score),[23],0.231
same,glycan array binding signal (z-score),[24],-0.32
